According to US20180371095A1 (published 2018):

Target: T1, recombinant human Siglec-7 (rhSiglec-7)/Fc protein (human, UniProt Q9Y286 19-357, limits assumed)
T1 construct: also called Fc-tagged Siglec7 protein; human Siglec-7 Fc protein; not shown: human IgG Fc region
Assay: SPR (Biacore), Fc-tagged Siglec7 captured on Protein A/G/L CM5 chip

T1 sequence (Q9Y286 19-357 limits assumed): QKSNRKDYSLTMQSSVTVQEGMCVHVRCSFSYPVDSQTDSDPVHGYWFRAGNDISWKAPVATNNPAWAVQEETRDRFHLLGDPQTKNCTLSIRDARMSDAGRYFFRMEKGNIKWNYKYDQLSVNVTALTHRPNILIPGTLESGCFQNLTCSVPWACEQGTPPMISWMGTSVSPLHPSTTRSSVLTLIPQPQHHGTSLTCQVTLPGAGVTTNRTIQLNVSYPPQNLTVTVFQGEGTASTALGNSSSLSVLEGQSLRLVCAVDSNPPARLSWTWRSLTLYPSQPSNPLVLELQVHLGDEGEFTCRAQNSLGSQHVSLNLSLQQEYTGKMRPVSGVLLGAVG

B1: soluble his-tagged VSIG-4 recombinant protein (receptor)
chain: not shown
notes: not shown: His tag
B1 showed a Kd of 29.7 nM.
